Measurements published in patent US20140363428A1 (Chugai, published 2014).

Key:
soluble human FcRn [1] = target: T1, soluble human FcRn (human, UniProt P55899 fragment; P61769 fragment); assay: SPR (Biacore), pH 7.0, 25 C;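 also: antibodies captured on a protein L-coated CM4 chip with human FcRn injected as analyte, KD obtained from ka and kd fitted to sensorgrams, in sodium phosphate buffer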
T1 construct: Heterodimer of alpha chain and beta2-microglobulin; also called hFcRn

soluble human FcRn [2] = target: T2, soluble human FcRn (human, UniProt P55899 fragment; P61769 fragment); assay: SPR (Biacore T100), antibody captured by protein L, hFcRn as analyte, pH 7.0, 25 C;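 also: KD calculated from fitted association and dissociation rate constants of the sensorgrams, protein L amine-coupled to the sensor chip, sodium phosphate running buffer with NaCl and Tween20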
T2 construct: Heterodimer of FcRn alpha chain and beta2-microglobulin; also called hFcRn

soluble human FcRn, sequence (P55899 24-297 limits assumed, chain 1 of 2): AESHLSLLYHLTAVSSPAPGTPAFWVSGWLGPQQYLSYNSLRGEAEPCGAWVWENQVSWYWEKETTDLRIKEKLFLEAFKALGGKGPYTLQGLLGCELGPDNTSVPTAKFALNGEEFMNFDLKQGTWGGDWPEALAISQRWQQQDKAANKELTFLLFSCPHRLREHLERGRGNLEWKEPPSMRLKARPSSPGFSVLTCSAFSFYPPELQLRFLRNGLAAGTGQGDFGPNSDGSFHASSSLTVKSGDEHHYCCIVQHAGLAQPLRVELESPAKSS
soluble human FcRn, sequence (P61769 21-119 limits assumed, chain 2 of 2, further chain): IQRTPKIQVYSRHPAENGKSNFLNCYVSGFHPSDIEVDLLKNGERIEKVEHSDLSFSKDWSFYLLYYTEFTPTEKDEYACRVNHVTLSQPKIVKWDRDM

B1: IgG1-F1410 (antibody)
heavy: QVQLQESGPGLVKPSETLSLTCAVSGHSISHDHAWSWVRQPPGEGLEWIGFISYSGITNYNPSLQGRVTISRDNSKNTLYLQMNSLRAEDTAVYYCARSLARTTAMDYWGEGTLVTVSS[gap - human IgG1 constant region with V308P I332V (EU numbers)]
light: DIQMTQSPSSLSASVGDRVTITCRASQDISSYLNWYQQKPGKAPKLLIYYTSRLHSGVPSRFSGSGSGTDFTFTISSLQPEDIATYYCQQGNTLPYTFGQGTKVEIKRTVAAPSVFIFPPSDEQLKSGTASVVCLLNNFYPREAKVQWKVDNALQSGNSQESVTEQDSKDSTYSLSSTLTLSKADYEKHKVYACEVTHQGLSSPVTKSFNRGEC
Kd (soluble human FcRn [1]): 1900 nM

B2: IgG1-F1159 (antibody)
heavy: QVQLQESGPGLVKPSETLSLTCAVSGHSISHDHAWSWVRQPPGEGLEWIGFISYSGITNYNPSLQGRVTISRDNSKNTLYLQMNSLRAEDTAVYYCARSLARTTAMDYWGEGTLVTVSS[gap - human IgG1 constant region with S424N N434W (EU numbers)]
light: DIQMTQSPSSLSASVGDRVTITCRASQDISSYLNWYQQKPGKAPKLLIYYTSRLHSGVPSRFSGSGSGTDFTFTISSLQPEDIATYYCQQGNTLPYTFGQGTKVEIKRTVAAPSVFIFPPSDEQLKSGTASVVCLLNNFYPREAKVQWKVDNALQSGNSQESVTEQDSKDSTYSLSSTLTLSKADYEKHKVYACEVTHQGLSSPVTKSFNRGEC
notes: EU numbering; copies: 2 + 2
Kd (soluble human FcRn [2]): 480 nM
